Data on 50 compounds can be found in PubChem BioAssay AID1645882 (National Center for Advancing Translational Sciences (NCATS), 2021).

Out of some 16,000 compounds screened, about 120 (0.75%) were called active. About 4% were inconclusive and are not listed. Calls follow the shape of the dose curve; as a rule, active = well fitted inhibition curve with a large enough effect; inconclusive = small, poorly fitted or top-dose-only effect; inactive = no such curve, though single readings can be large or run the other way. The list shows a part of the results. Where a structure was tested more than once in an assay, its records may differ in their call.

UniProt O95398, sequence (O95398 whole entry, looked up): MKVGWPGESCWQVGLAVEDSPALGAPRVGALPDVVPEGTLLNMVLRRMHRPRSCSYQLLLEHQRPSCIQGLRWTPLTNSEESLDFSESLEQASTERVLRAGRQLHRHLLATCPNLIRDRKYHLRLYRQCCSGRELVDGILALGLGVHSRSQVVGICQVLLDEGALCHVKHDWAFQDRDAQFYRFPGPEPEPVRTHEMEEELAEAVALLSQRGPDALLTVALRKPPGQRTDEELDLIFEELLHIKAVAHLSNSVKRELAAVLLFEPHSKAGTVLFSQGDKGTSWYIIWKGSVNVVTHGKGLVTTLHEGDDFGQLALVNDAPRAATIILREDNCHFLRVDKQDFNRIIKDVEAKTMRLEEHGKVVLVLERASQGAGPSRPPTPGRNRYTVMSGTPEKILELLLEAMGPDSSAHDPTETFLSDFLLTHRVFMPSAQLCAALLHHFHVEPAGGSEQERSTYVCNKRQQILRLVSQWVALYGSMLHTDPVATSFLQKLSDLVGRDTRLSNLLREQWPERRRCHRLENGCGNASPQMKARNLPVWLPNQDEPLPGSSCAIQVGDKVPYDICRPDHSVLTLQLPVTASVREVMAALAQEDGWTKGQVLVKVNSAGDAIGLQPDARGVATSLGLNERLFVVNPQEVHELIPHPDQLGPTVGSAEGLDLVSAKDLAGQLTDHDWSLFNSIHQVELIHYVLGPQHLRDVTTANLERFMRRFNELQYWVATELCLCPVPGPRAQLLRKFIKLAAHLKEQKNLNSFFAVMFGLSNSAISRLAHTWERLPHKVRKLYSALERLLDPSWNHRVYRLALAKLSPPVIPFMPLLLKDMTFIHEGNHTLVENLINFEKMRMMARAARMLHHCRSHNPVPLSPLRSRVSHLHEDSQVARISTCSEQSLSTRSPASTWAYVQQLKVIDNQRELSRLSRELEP

The test has as its target Rap guanine nucleotide exchange factor 3 (Homo sapiens) (UniProt O95398). Kind of test: Validation qHTS for antagonist of cAMP-regulated guanine nucleotide exchange factor 3 (EPAC1).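 Also: plate controls were DMSO for no effect and ATA control for full effect; nearly all actives have a fitted effect of over 75% in size.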 The settings on record: EPAC1 Rap1B-BODIPY-GDP exchange, fluorescence; series mostly up to 150 µM; activity change, negative = inhibition: at the top concentration. The method, boiled down:
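Nucleotide exchange followed as fluorescence loss when BODIPY-GDP leaves Rap1B (480 nm excitation, 540 nm emission), read at 5 min intervals over 30 min. Reaction: 100 nM EPAC1, 250 nM RAP1B-BODIPY-GDP, 50 uM GDP; ATA and DMSO define normalization.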
As for `COc1cccc(CN(CC(=O)NCc2ccccc2)S(=O)(=O)CCl)c1`, the “activity change, negative = inhibition” value is inactive: -9.68%. The same measure for `O=C(NCC1(N2CCOCC2)CCCCC1)c1cnn(-c2nccc(-c3cccs3)n2)c1C1CC1`: inactive: -5.76%; for `Cc1[nH]c2c(F)cccc2c1CC(=O)NCCN1Cc2ccccc2OC(C)C1` (stereo not given): inactive: -11.3%; for `CO[C@@]1(NC(=O)Cc2cccs2)C(=O)N2C(C(=O)O)=C(COC(N)=O)CS[C@@H]21`: “inactive”. The same measure for `O=c1c(-c2ccc(F)cc2)nc2cnc(Oc3ccccc3)nc2n1C[C@H]1CCCO1`: inactive: -3.24%; for `CN(C)Cc1ccccc1-c1cc(N(C)Cc2ccco2)ncn1`: inactive: 0.453%. As for `COc1cccc(-c2ccnc(-n3ncc(C(=O)NCC(C)(C)CN(C)C)c3C)n2)c1`, the figure is inactive: 14.8%; as for `c1ccc(-c2ccc(N3CC4(CCNCC4)C3)cc2)cc1`, inactive: 1.07%; as for `CC1CC[C@]2(CO)CC[C@]3(C)C(=CCC4[C@@]5(C)CCC(O)C(C)(C)C5CC[C@@]43C)C2C1C` (stereo not given in full), inactive: -8.05%. Turning to `CCCCCCCCCCCCC/C=C/[C@@H](O)[C@H](CO)NC(=O)CCCCCCCCCCCCCCC`, the activity change, negative = inhibition is inactive: 29% [at 15.3 µM]. Take `CCC1CN(CC(=O)NCc2n[nH]c3c2CCCCC3)Cc2cc(OC)ccc2O1` (stereo not given): the “activity change, negative = inhibition” value is inactive: -20.6%. As for `O=C(CCCN1CCC(O)(c2ccc(Br)cc2)CC1)c1ccc(F)cc1`, the figure is inactive: -6.82% [at 75.8 µM]; as for `CNCC[C@H](Oc1cccc2ccccc12)c1cccs1`, inactive: 15%. As to `CC(=O)ON(C(C)=O)S(=O)(=O)c1ccc(Cl)cc1`, the “activity change, negative = inhibition” value is inactive: 14%. As to `COc1cccc(Nc2ncc3nc(CCc4ccccc4)c(=O)n(Cc4cccs4)c3n2)c1`, the “activity change, negative = inhibition” value is inactive: 7.3%. The same measure for `COc1cccc(OC)c1CN1CCC2(CCC(CNC(=O)c3ccccc3)O2)CC1` (stereo not given): inactive: 15.7%. As for `COC(C)=O`, the figure is inactive: 49.2%; as for `Nc1ncnc2nc(Cl)[nH]c12`, inactive: 7.08%; as for `N#C/C(=C1\SCC(c2ccccc2Cl)S1)n1ccnc1` (stereo not given), inactive: 16.1%. As for `C[N+]1(C)CCCC(OC(=O)C(O)(c2ccccc2)c2ccccc2)C1` (stereo not given), the entry is “inactive”; as for `Cc1cnc(-n2ncc(C(=O)N(C)CC3COCCO3)c2C2CC2)nc1-c1cccs1` (stereo not given), inactive: 20.8%. Regarding `CN1CCN2c3ccccc3Cc3ccccc3[C@@H]2C1`, the “activity change, negative = inhibition” value is inactive: -1.25%.

As to `CN1CCN(c2ncc3nc(-c4cccs4)c(=O)n(Cc4ccc(F)cc4)c3n2)CC1`, the “activity change, negative = inhibition” value is inactive: 16.9%. In the case of `CN(C)c1ncc2nc(CCc3ccccc3)c(=O)n(Cc3cccs3)c2n1`, the “activity change, negative = inhibition” value was inactive: 7.49%. In the case of `CN(C)C(=O)c1ccc(-c2nc(Nc3ccncc3)c3ccccc3n2)cc1`, the “activity change, negative = inhibition” value is inactive: 4.53%. For the compound `Cc1nc(NCc2c(F)cccc2F)sc1-c1ccn(CCN2CCOCC2)n1`, the “activity change, negative = inhibition” value is inactive: 15.6%. As for `CC(C)C(NS(C)(=O)=O)c1nnc2n1CCN(Cc1ccc(Cl)cc1)CC2` (stereo not given), the figure is inactive: 11.2%.

Turning to `CC(=O)N1CCC2(CC1)CCN(c1cccc(-c3ccccc3)c1)CC2`, the “activity change, negative = inhibition” value is inactive: -9.51%. As for `COc1cc(Cc2cnc(N)nc2N)cc(OC)c1OC`, the entry is “inactive”.

Take `NC(=O)C(=O)O`: the “activity change, negative = inhibition” value is inactive: -6.39% [at 75.8 µM].

Turning to `O=c1c(-c2ccc(F)cc2)nc2cnc(Oc3cccc(Cl)c3)nc2n1C[C@H]1CCCO1`, the “activity change, negative = inhibition” value was inactive: -9.52%.

Take `CN(CCc1ccc(Cl)c(Cl)c1)CCN1CCCC1`: the “activity change, negative = inhibition” value was inactive: 16.7%. The same measure for `CC1=CC(=O)CC(C)(C)C1(O)/C=C/C(C)=C/C(=O)O` (stereo not given): inactive: 1.54%; for `O=S(=O)(c1ccccc1)N1CCC2(CC1)CN(c1ccncc1)C2`: inactive: 10.6%. Regarding `CN1CCN(c2ncncc2-c2ccccc2C(F)(F)F)CC1`, the “activity change, negative = inhibition” value is inactive: 10.5%.

Regarding `COCC1=C(C(=O)OC(C)OC(=O)OC(C)C)N2C(=O)[C@@H](NC(=O)/C(=N\OC)c3csc(N)n3)[C@H]2SC1` (stereo not given in full), the activity change, negative = inhibition entry was “inactive”.

For `COc1cc(=O)n2c(c1C(=O)NCc1ccc3c(c1)OCO3)CCN(C(=O)c1ccc(C)cc1)CC2`, the “activity change, negative = inhibition” value is inactive: 15.7%. As for `O=C(CCc1nc2ccccc2s1)N1CCOc2ccc(CN3CCc4sccc4C3)cc2C1`, the figure is inactive: 16%. The same measure for `CO[C@H]1[C@H](NC(=O)c2ccco2)c2ccccc2C12CCN(Cc1cc(Cl)ccc1O)CC2`: inactive: 9.06%. On to `COc1ccc(-c2nc3cnc(Nc4cccc(OC)c4)nc3n(CCC#N)c2=O)cc1`, for which the “activity change, negative = inhibition” value is inactive: 27.9%. The same measure for `O=S1(=O)CCO[C@H]2Cc3ccccc3[C@H]2N1Cc1ccccc1`: inactive: -16%; for `OC[C@H]1O[C@@H](n2cnc3c(=S)nc[nH]c32)[C@H](O)[C@@H]1O`: inactive: 19.2%; for `CCN(CC)CCOC(=O)C(c1ccccc1)C1CCCCC1` (stereo not given): inactive: 8.31%. Turning to `COc1cc(-c2ccc(N=Nc3ccc4c(S(=O)(=O)O)cc(S(=O)(=O)O)c(N)c4c3O)c(OC)c2)ccc1N=Nc1ccc2c(S(=O)(=O)O)cc(S(=O)(=O)O)c(N)c2c1O`, the activity change, negative = inhibition is inactive: 12.3% [at 27.4 µM].

Turning to `CN(C)c1cc2c(Nc3ccc4c(cnn4Cc4ccccc4)c3)ncnc2cn1`, the “activity change, negative = inhibition” value was inactive: -2.54% [at 75.8 µM]. On to `COc1ccccc1-c1ccnc(-n2ncc(C(=O)NCc3cccnc3)c2C)n1`, for which the “activity change, negative = inhibition” value is inactive: 8.04%.

On to `CN(C)C(=O)c1ccc(-c2cncnc2-n2ccnc2)cc1`, for which the “activity change, negative = inhibition” value is inactive: 20.5%. With `COCCN1CCN(C(=O)c2cnn(-c3nccc(-c4ccco4)n3)c2C2CC2)CC1`, the “activity change, negative = inhibition” value is inactive: 12.5%. As for `Cc1nc2cnc(Oc3ccccc3)nc2n(CCC#N)c1=O`, the figure is inactive: 5.7%.

On to `OC(Br)C(O)C(O)N1CCCc2ccccc21` (stereo not given), for which the “activity change, negative = inhibition” value was inactive: 6.54%.
